Consider six molecules from article PMC9650030, “The RNA repair proteins RtcAB regulate transcription activator RtcR via its CRISPR-associated Rossmann fold domain” (iScience, 2022).

Sequences of proteins named here, by UniProt entry; tags and fusion partners are left off.
UniProt P37931: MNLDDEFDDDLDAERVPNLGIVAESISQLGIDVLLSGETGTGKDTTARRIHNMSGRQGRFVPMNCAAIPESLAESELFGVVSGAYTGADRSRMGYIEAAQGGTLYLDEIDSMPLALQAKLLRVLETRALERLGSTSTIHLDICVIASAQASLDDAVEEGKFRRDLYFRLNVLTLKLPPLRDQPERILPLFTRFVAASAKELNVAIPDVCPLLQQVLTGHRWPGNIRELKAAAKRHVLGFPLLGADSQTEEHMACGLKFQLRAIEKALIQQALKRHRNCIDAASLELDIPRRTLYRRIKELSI

Results are given in words; binding and its absence hold for the method and conditions named. Some entries that bind do so weakly or less than the wild type. Tags and fused reporters may be left off the sequences shown.

The target in assay [1] is T1, Full-length RtcR, T18/T25 fusion (bacterial two-hybrid) (Escherichia coli) (UniProt P38035).
T1 sequence: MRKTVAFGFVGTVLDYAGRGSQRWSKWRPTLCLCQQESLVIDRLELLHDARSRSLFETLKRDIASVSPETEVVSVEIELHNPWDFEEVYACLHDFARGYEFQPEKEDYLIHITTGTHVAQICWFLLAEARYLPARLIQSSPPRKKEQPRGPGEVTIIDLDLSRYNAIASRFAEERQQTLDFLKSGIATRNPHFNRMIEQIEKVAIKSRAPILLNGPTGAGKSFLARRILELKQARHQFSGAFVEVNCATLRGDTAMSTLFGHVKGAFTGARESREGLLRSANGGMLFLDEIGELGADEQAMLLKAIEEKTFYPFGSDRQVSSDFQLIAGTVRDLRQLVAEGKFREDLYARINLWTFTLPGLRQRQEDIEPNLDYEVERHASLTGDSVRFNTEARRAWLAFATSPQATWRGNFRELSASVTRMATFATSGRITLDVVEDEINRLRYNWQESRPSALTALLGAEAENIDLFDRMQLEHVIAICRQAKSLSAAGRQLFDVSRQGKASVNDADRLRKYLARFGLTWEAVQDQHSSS
The assay is described as follows: two-hybrid; bacterial adenylate cyclase two-hybrid (BACTH) in E. coli BTH101; pairs of N- or C-terminal T18/T25 fusions; β-galactosidase read-out against T18 and T25 alone.

For assay [2], the target named is T2, RtcR CARF domain on its own, T18/T25 fusion (bacterial two-hybrid; RtcR_(1-186)) (Escherichia coli) (UniProt P38035).
T2 sequence: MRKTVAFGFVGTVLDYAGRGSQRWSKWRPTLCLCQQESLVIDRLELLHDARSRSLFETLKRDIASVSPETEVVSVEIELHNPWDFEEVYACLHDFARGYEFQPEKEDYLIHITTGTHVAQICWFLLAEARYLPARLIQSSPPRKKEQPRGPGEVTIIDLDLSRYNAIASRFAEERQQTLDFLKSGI
As to the kind of experiment: two-hybrid; tripartite (three-hybrid) BACTH: T18/T25 pair plus the third Rtc protein expressed in trans (RtcB from pBAD18cm for RtcR-RtcA pairs; RtcA for RtcR-RtcB and CARF-RtcB pairs); β-galactosidase read-out.

Assay [3] addresses T2, RtcR CARF domain on its own, T18/T25 fusion (bacterial two-hybrid; RtcR_(1-186)) (Escherichia coli). As to the kind of experiment: two-hybrid; bacterial adenylate cyclase two-hybrid (BACTH) in E. coli BTH101; pairs of N- or C-terminal T18/T25 fusions; β-galactosidase read-out against T18 and T25 alone.
The target of assay [4] is T3, RtcR_(ΔCARF), T18/T25 fusion (bacterial two-hybrid; RtcR_(187-532)) (Escherichia coli) (UniProt P38035).
T3 sequence: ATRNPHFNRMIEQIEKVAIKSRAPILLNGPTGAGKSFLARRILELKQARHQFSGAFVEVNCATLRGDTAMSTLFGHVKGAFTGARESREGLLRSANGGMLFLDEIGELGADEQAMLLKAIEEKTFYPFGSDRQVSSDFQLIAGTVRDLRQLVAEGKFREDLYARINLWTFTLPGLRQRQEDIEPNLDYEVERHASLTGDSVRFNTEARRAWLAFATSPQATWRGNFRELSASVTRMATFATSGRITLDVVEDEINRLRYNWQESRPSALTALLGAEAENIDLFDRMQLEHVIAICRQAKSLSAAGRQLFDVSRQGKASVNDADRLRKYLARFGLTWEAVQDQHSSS
The description is as above.

Assay [5] has as its target T1, Full-length RtcR, T18/T25 fusion (bacterial two-hybrid) (Escherichia coli). The assay is described as follows: two-hybrid; tripartite (three-hybrid) BACTH: T18/T25 pair plus the third Rtc protein expressed in trans (RtcB from pBAD18cm for RtcR-RtcA pairs; RtcA for RtcR-RtcB and CARF-RtcB pairs); β-galactosidase read-out.
Assay [6] concerns the target T4, Full-length RtcB, T18/T25 fusion (bacterial two-hybrid) (Escherichia coli) (UniProt P46850).
T4 sequence: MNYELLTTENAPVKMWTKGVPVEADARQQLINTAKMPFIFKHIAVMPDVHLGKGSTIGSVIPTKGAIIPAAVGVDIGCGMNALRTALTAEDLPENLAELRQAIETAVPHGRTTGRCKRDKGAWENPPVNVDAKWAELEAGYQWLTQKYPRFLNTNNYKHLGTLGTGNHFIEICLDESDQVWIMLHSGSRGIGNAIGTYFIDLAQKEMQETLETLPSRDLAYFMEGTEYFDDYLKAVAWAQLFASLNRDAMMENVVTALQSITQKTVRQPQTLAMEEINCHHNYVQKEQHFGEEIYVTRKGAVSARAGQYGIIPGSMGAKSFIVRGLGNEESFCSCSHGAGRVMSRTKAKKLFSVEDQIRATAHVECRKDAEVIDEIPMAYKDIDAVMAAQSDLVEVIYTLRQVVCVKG
As to the kind of experiment: two-hybrid; bacterial adenylate cyclase two-hybrid (BACTH) in E. coli BTH101; pairs of N- or C-terminal T18/T25 fusions; β-galactosidase read-out against T18 and T25 alone.

For assay [7], the target named is HrpS, T18/T25 fusion (bacterial two-hybrid) (Pseudomonas syringae) (UniProt P37931). The assay is described as above.
The target in assay [8] is T5, His-RtcB (N-terminal his-tagged RNA ligase RtcB) (Escherichia coli) (UniProt P46850).
T5 sequence: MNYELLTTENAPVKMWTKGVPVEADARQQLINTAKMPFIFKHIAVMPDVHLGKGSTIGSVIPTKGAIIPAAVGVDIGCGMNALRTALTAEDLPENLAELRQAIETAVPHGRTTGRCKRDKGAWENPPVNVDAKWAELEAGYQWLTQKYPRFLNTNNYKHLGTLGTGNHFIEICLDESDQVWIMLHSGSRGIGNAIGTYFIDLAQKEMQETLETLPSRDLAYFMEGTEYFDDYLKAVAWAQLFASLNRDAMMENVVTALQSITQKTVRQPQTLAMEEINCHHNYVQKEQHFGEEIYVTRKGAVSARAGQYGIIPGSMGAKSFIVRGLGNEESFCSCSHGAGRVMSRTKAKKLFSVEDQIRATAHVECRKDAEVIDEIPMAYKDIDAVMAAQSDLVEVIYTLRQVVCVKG
The assay is described as follows: SEC; Superdex 200 (10 by 300 mm); proteins at equimolar concentrations (20 μM); fractions checked by SDS-PAGE and immunoblotting; both purified. A general note: SEC sorts molecules by how far they enter the pores of the column.

B1: Full-length RtcR, T18/T25 fusion (bacterial two-hybrid) (protein, UniProt P38035 1-532)
chain: MRKTVAFGFVGTVLDYAGRGSQRWSKWRPTLCLCQQESLVIDRLELLHDARSRSLFETLKRDIASVSPETEVVSVEIELHNPWDFEEVYACLHDFARGYEFQPEKEDYLIHITTGTHVAQICWFLLAEARYLPARLIQSSPPRKKEQPRGPGEVTIIDLDLSRYNAIASRFAEERQQTLDFLKSGIATRNPHFNRMIEQIEKVAIKSRAPILLNGPTGAGKSFLARRILELKQARHQFSGAFVEVNCATLRGDTAMSTLFGHVKGAFTGARESREGLLRSANGGMLFLDEIGELGADEQAMLLKAIEEKTFYPFGSDRQVSSDFQLIAGTVRDLRQLVAEGKFREDLYARINLWTFTLPGLRQRQEDIEPNLDYEVERHASLTGDSVRFNTEARRAWLAFATSPQATWRGNFRELSASVTRMATFATSGRITLDVVEDEINRLRYNWQESRPSALTALLGAEAENIDLFDRMQLEHVIAICRQAKSLSAAGRQLFDVSRQGKASVNDADRLRKYLARFGLTWEAVQDQHSSS
With B1, in assay [1], the binding entry is “binds”.

B2: Full-length RtcB, T18/T25 fusion (bacterial two-hybrid) (enzyme, UniProt P46850 1-408)
chain: MNYELLTTENAPVKMWTKGVPVEADARQQLINTAKMPFIFKHIAVMPDVHLGKGSTIGSVIPTKGAIIPAAVGVDIGCGMNALRTALTAEDLPENLAELRQAIETAVPHGRTTGRCKRDKGAWENPPVNVDAKWAELEAGYQWLTQKYPRFLNTNNYKHLGTLGTGNHFIEICLDESDQVWIMLHSGSRGIGNAIGTYFIDLAQKEMQETLETLPSRDLAYFMEGTEYFDDYLKAVAWAQLFASLNRDAMMENVVTALQSITQKTVRQPQTLAMEEINCHHNYVQKEQHFGEEIYVTRKGAVSARAGQYGIIPGSMGAKSFIVRGLGNEESFCSCSHGAGRVMSRTKAKKLFSVEDQIRATAHVECRKDAEVIDEIPMAYKDIDAVMAAQSDLVEVIYTLRQVVCVKG
With B2, the binding result in assay [2] is “no binding (condition: with RtcA expressed in trans)”; in assay [3] it was “binds”; in assay [4], “no binding”.

B3: Full-length RtcA, T18/T25 fusion (bacterial two-hybrid) (enzyme, UniProt P46849 1-338)
chain: MKRMIALDGAQGEGGGQILRSALSLSMITGQPFTITSIRAGRAKPGLLRQHLTAVKAATEICGATVEGAELGSQRLLFRPGTVRGGDYRFAIGSAGSCTLVLQTVLPALWFADGPSRVEVSGGTDNPSAPPADFIRRVLEPLLAKIGIHQQTTLLRHGFYPAGGGVVATEVSPVASFNTLQLGERGNIVQMRGEVLLAGVPRHVAEREIATLAGSFSLHEQNIHNLPRDQGPGNTVSLEVESENITERFFVVGEKRVSAEVVAAQLVKEVKRYLASTAAVGEYLADQLVLPMALAGAGEFTVAHPSCHLLTNIAVVERFLPVRFSLIETDGVTRVSIE
In the case of B3, the binding result was “binds” in assay [5]; “binds” in assay [3]; “no binding” in assay [6]; “no binding” in assay [7]; “no binding” in assay [4]; “binds” in assay [1].

B4: His-RtcA (N-terminal his-tagged RNA 3'-terminal phosphate cyclase RtcA) (enzyme, Escherichia coli, UniProt P46849 1-338, looked up)
chain: MKRMIALDGAQGEGGGQILRSALSLSMITGQPFTITSIRAGRAKPGLLRQHLTAVKAATEICGATVEGAELGSQRLLFRPGTVRGGDYRFAIGSAGSCTLVLQTVLPALWFADGPSRVEVSGGTDNPSAPPADFIRRVLEPLLAKIGIHQQTTLLRHGFYPAGGGVVATEVSPVASFNTLQLGERGNIVQMRGEVLLAGVPRHVAEREIATLAGSFSLHEQNIHNLPRDQGPGNTVSLEVESENITERFFVVGEKRVSAEVVAAQLVKEVKRYLASTAAVGEYLADQLVLPMALAGAGEFTVAHPSCHLLTNIAVVERFLPVRFSLIETDGVTRVSIE
notes: RtcA, RNA 3'-terminal phosphate cyclase, Escherichia coli; not shown: His tag, N-terminal, kept
As for B4, in assay [8], the binding result is reported as “no binding (tested: 20 μM)”.

B5: RtcA expressed in trans (third protein of the tripartite two-hybrid assay) (enzyme, UniProt P46849 1-338)
chain: MKRMIALDGAQGEGGGQILRSALSLSMITGQPFTITSIRAGRAKPGLLRQHLTAVKAATEICGATVEGAELGSQRLLFRPGTVRGGDYRFAIGSAGSCTLVLQTVLPALWFADGPSRVEVSGGTDNPSAPPADFIRRVLEPLLAKIGIHQQTTLLRHGFYPAGGGVVATEVSPVASFNTLQLGERGNIVQMRGEVLLAGVPRHVAEREIATLAGSFSLHEQNIHNLPRDQGPGNTVSLEVESENITERFFVVGEKRVSAEVVAAQLVKEVKRYLASTAAVGEYLADQLVLPMALAGAGEFTVAHPSCHLLTNIAVVERFLPVRFSLIETDGVTRVSIE
On to B5, for which the binding entry in assay [2] was “binds”.

B6: RtcR_(ΔCARF), T18/T25 fusion (bacterial two-hybrid; RtcR_(187-532)) (domain or fragment, UniProt P38035 187-532)
chain: ATRNPHFNRMIEQIEKVAIKSRAPILLNGPTGAGKSFLARRILELKQARHQFSGAFVEVNCATLRGDTAMSTLFGHVKGAFTGARESREGLLRSANGGMLFLDEIGELGADEQAMLLKAIEEKTFYPFGSDRQVSSDFQLIAGTVRDLRQLVAEGKFREDLYARINLWTFTLPGLRQRQEDIEPNLDYEVERHASLTGDSVRFNTEARRAWLAFATSPQATWRGNFRELSASVTRMATFATSGRITLDVVEDEINRLRYNWQESRPSALTALLGAEAENIDLFDRMQLEHVIAICRQAKSLSAAGRQLFDVSRQGKASVNDADRLRKYLARFGLTWEAVQDQHSSS
As for B6, in assay [4], the binding entry is listed as “binds”.
